Read counts are not given, so values of variants with three or more changes are uncertain.
B1: CPEB3 Ribozyme (parent)
chain: UAACAGGGGGCCACAGCAGAAGCGUUCACGUCGCAGCCCCUGUCAGAUUCUGGUGAAUCUGCGAAUUCUGCUGUAUAUCUC

Variants of: B1
Assay: self-cleavage, relative activity (ratio to wild type); higher = more cleavage; in vitro, sequencing
Summary of the method: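 CPEB3 self-cleaving ribozyme mutant libraries were made by rounds of error-prone PCR, barcoded, and transcribed in vitro with T7 RNA polymerase for 5 hours at 37°C. Cleavage occurred during transcription and a 15 min DNase I step before EDTA stop. RNAs were reverse transcribed with template switching and Illumina-sequenced, with DNA sequencing mapping barcodes to variants. Relative activity is the variant's cleaved/total read fraction divided by wild type's (minimum 5 reads), averaged across three batches.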

Variant | self-cleavage
U41C U43C A45G A57U U66A U76C C81U | 0.07
A45G A47G U54G | 0.29
U43A G55A A56G | 0.94
C40A A45U C81A | 0.2
U43A A45G A47U A64G | 0.09
U41A A47G U49C A57G U67A U78C | 0.07
U41C U69A U76C A77G | 0.94
U43C U58C U66C | 0.12
U41A A47G A65G | 0.18
U41A A45G A56G | 0.33
C44U U60C U69C | 0.49
U41C A47G U60C C71A | 0.33
C40U C44A A47G | 0.14
U43G A47U U51C A65G | 0.15
U41C U43C U49A A64U U76C U78C | 0.14
U41C U43C A56G | 0.31
U43G U54C G61A | 0.23
U41C A45G A57G U60C | 1.13
U43A U51C U54C | 1.12
C40U A56G C59G | 0.06
G42A U49A U51A A75G | 0.09

Variant | self-cleavage
A45G A64U U67C U69G | 0.24
U43C U49C A57G | 0.15
U43C A64G U67A | 0.21
G42A A64U U76C | 0.09
U43A U67C A77U | 0.22
U41G U49A U67G U69C A77U | 0.08
U41C U49A A56G A65G G73C U74C U78C | 0.39
U41A U48C U54A U60G U72C | 0.12
U41C A57G C62A U67C | 0.39
U41C U51A C62U | 0.21
U41C A57G U76C | 0.98
A45G A47U U48C A75C | 0.19
U41A A56G A64G U74A U80G | 0.05
U41G A65G U69C | 0.07
U41A U51G U67A U72A | 0.07
U43A A45U U72G | 1.06
U41C U60C U76G | 0.56
C40U A56U U72A | 0.18
U43C U54C A64G U76C | 0.23
U41A U58C U67C | 0.1
C40G A57U C62U | 0.09

Variant | self-cleavage
C40G A47G U51A U60C | 0
A45G A57G U72A | 0.82
U41C U51A U60C | 0.71
U41A G53C U69A U78C | 0.07
G42U U60A A65G | 0.12
C44U U51A U72C | 0.14
U41A A45G U60A | 0.35
C44U A56G U60A | 0.25
U43C U48A U78C | 0.14
C40U U51A U69C | 0.37
U41A U49C U69C | 0.12
U43C U48C U78C | 0.18
U41A U54C A65G U69C U72C U80C | 0.09
U41A U66C U67C U72C | 0.06
U43C G61C U67C | 0.09
U41C U51A A57G | 0.64
U41C U49C U72C A77G | 0.41
U43C U48C U54G A64G | 0.09
U41C A45U C62U | 0.21
U41A A45G U67C | 0.31
C40A U43C A45U U51C U60C A75G | 0.07

Variant | self-cleavage
U41C U67C U69C U80C | 0.18
U43C U54G U69A | 0.2
U41C U58G U72G A77G | 0.18
A45C U48C U78C | 0.49
U41C C50A G52U U60C A77G | 0.21
C44U A56G U69G | 0.17
U43C U49C U58G | 0.2
U43C U49C U58C | 0.16
U41C U67A A75G | 0.32
U41C U54A U69C U74C | 0.74
U41C U51G G52C | 1.11
U41C U69G A75G | 0.57
U41A U48C U80C | 0.38
C40U A47G U48C U58A | 0.12
U41G U60A A77U | 0.28
C40U U69A U78A | 0.41
U43C A47G U58A U80A | 0.08
U41A U49C A64G | 0.4
C44U A64G U69G U76C | 0.07
U41C A56G A65G U80C | 0.2
U41C G63C U67C U69C | 0.23

Source: the RNAGym collection of RNA variant scans (doi:10.1093/nar/gkz1192)
